{"source": "PubChem BioAssay AID1460", "about": "(National Center for Advancing Translational Sciences (NCATS), 2008)", "note": "The campaign covered roughly 270,000 compounds. About 5,800 (2.1%) were called active. The shares of active, inactive and inconclusive entries below differ from those in the screen. Calls come from the whole dose curve; as a rule, active = well fitted inhibition curve with a large enough effect; inconclusive = small, poorly fitted or top-dose-only effect; inactive = flat fitted curve, though single readings scatter. Potencies of inconclusive entries are doubtful fits and often do not repeat. % is set by controls: 0 for no effect and ±100 for the full control effect; potency is the fitted concentration of half-maximal effect; tags give direction and shape of the fitted curve.", "data": [{"target": "Microtubule-associated protein tau (Homo sapiens) (UniProt P10636)", "sequence (P10636 whole entry, looked up, the tested form may be a part)": "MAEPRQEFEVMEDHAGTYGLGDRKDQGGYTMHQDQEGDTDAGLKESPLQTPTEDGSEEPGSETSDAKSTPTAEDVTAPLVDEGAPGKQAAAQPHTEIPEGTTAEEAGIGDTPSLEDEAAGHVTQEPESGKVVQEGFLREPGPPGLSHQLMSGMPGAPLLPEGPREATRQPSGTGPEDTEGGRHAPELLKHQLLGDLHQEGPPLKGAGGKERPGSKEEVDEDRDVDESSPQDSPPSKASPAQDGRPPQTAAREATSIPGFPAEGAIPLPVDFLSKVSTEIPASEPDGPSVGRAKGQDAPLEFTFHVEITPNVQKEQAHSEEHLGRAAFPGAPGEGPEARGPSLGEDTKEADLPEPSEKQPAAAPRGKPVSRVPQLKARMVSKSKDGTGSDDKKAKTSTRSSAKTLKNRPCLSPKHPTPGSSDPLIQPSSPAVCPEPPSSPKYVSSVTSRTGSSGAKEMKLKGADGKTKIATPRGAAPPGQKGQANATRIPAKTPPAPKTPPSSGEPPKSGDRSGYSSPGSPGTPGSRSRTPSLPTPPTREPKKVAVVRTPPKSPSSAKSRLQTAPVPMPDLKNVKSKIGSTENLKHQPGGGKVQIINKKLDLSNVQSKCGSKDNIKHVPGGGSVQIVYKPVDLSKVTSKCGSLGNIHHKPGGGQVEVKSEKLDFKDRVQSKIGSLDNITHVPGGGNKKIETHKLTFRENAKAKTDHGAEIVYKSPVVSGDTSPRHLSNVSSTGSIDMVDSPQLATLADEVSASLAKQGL", "assay": "qHTS for Inhibitors of Tau Fibril Formation, Thioflavin T Binding; note: nearly all actives have a fitted effect of over 55% in size", "conditions": "recombinant tau K18 P301L (four-repeat tau fragment), heparin-induced fibrillization, ThT fluorescence; series mostly up to 57.4 µM", "method_in_brief": "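In this qHTS, human K18 P301L tau is incubated with compound and heparin for 6 hr at 37 C, and Thioflavin T fluorescence then reports fibril load.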", "values": [{"smiles": "CCOC(=O)Cc1csc(SCC(=O)NC2CCCC(C)C2C)n1", "note": "(centres undefined)", "Potency": "inactive"}, {"smiles": "NC(=O)[C@@H]1CCCNc2c(I)cc([N+](=O)[O-])cc2C(=O)N[C@@H](CCCN=C(N)N)C(=O)N[C@@H](CCCN=C(N)N)C(=O)N1", "Potency": "active: 28.2 µM"}, {"smiles": "CCOc1ccc(NC(=O)c2cnc(N3CCCC3)nc2C)cc1", "Potency": "inconclusive: 15.8 µM [inhibitor, partial curve]"}, {"smiles": "O=C(CCc1ccccc1)NCC1OCCc2ccccc21", "note": "(centres undefined)", "Potency": "inconclusive: 35.5 µM [inhibitor, single point]"}, {"smiles": "CCOC(=O)c1ccccc1-n1c(C)cc(C2N=C(N)Nc3nc4ccccc4n32)c1C", "note": "(centres undefined)", "Potency": "inconclusive: 22.4 µM [inhibitor, partial curve]"}, {"smiles": "CC1(C)C2CCC1(CS(=O)(=O)N1CCC(C(=O)O)CC1)C(=O)C2", "note": "(centres undefined)", "Potency": "inactive"}, {"smiles": "O=C(COc1ccc(Cl)cc1)Nc1nnc(S(=O)(=O)N2CCc3ccccc32)s1", "Potency": "inconclusive: 2.24 µM [inhibitor, partial curve]"}, {"smiles": "C/C(=N\\Nc1ccc(S(=O)(=O)Nc2ccc(Cl)cc2)cc1[N+](=O)[O-])c1ccc(N2CCOCC2)cc1", "Potency": "inconclusive: 8.91 µM [inhibitor, partial curve]"}, {"smiles": "CS(=O)(=O)N1CCN(c2ccc([N+](=O)[O-])c3cccnc23)CC1", "Potency": "inconclusive: 17.8 µM [inhibitor, partial curve]"}, {"smiles": "C=CCN1C(=O)S/C(=C/c2ccc(Sc3nc4ccccc4[nH]3)o2)C1=O", "Potency": "inconclusive: 12.6 µM [inhibitor, partial curve]"}, {"smiles": "Cc1ccc2c(=O)cc(C(=O)Nc3nc4ccc(Cl)cc4s3)oc2c1C", "Potency": "inconclusive: 2.82 µM [inhibitor, full curve]"}, {"smiles": "O=C(c1ccccc1)c1ncc(C(F)(F)F)cc1Cl", "Potency": "inactive"}, {"smiles": "N#CCC(=O)Nc1ccc(C(=O)OCC(=O)c2ccc3c(c2)OCCO3)cc1", "Potency": "inconclusive: 17.8 µM [inhibitor, partial curve, poor fit]"}, {"smiles": "Cc1ccc(-c2cc(C(=O)NCc3ccco3)c3ccccc3n2)o1", "Potency": "inconclusive: 31.6 µM [inhibitor, partial curve]"}, {"smiles": "N#Cc1ccc(-c2ccc(OCC(=O)NCC(=O)Nc3ccc(F)c(F)c3F)cc2)cc1", "Potency": "inconclusive: 11.2 µM [activator, partial curve, poor fit]"}, {"smiles": "CCO[C@@H]1OC(C(N)=O)=C[C@H](c2ccccc2)[C@H]1CCCO", "Potency": "inactive"}, {"smiles": "CN1C(CC(=O)c2ccccc2)CCCC1CC(O)c1ccccc1", "note": "(centres undefined)", "Potency": "inactive"}, {"smiles": "Nc1nc(/C=C/c2ccc(F)cc2)nc(-c2ccccc2O)n1", "Potency": "inconclusive: 3.55 µM [inhibitor, full curve, poor fit]"}, {"smiles": "CC(C)c1nnc(SCC(=O)NCc2ccco2)n1C", "Potency": "inconclusive: 22.4 µM [inhibitor, partial curve]"}, {"smiles": "CC(NC(=O)/C(=C\\c1cccc([N+](=O)[O-])c1)NC(=O)c1ccco1)C(=O)O", "note": "(centres undefined)", "Potency": "inconclusive: 8.91 µM [inhibitor, partial curve]"}, {"smiles": "CCOC(=O)c1c(C)[nH]c(C2=NNC(=NC3CC3)SC2)c1C", "Potency": "active: 15.8 µM"}, {"smiles": "CC(=O)n1cc([C@H]2C=C(C(=O)NCc3ccccc3)O[C@@H](OCCCCO)C2)c2ccccc21", "Potency": "inconclusive: 7.08 µM [inhibitor, partial curve]"}, {"smiles": "Cc1cc2nc(-c3ccc(SCC(=O)N4CCN(C(=O)c5ccco5)CC4)nc3)[nH]c2cc1C", "Potency": "inactive"}, {"smiles": "Cc1c(Cl)cccc1NC(=S)Nc1ccc2[nH]c(=O)[nH]c2c1", "Potency": "inconclusive: 10 µM [inhibitor, partial curve]"}, {"smiles": "CCCNC(=O)CCc1nnc2ccc(N3CCN(c4cccc(OC)c4)CC3)nn12", "Potency": "inactive"}, {"smiles": "CCOc1ccc(N2CC(c3nc4ccccc4n3CCCOc3ccccc3)CC2=O)cc1", "note": "(centres undefined)", "Potency": "inconclusive: 17.8 µM [inhibitor, partial curve, poor fit]"}, {"smiles": "O=S(=O)(c1cccs1)N1CCN(c2ccc(O)cc2)CC1", "Potency": "inconclusive: 10 µM [inhibitor, partial curve, poor fit]"}, {"smiles": "C/C(=N\\NS(=O)(=O)c1ccc([N+](=O)[O-])cc1)c1ccc(NC(=O)c2ccco2)cc1", "Potency": "inconclusive: 10 µM [inhibitor, partial curve]"}, {"smiles": "COc1ccc(NC(=O)/C(Cl)=C(/Cl)S(=O)(=O)Cc2ccccc2)cn1", "Potency": "active: 7.08 µM"}, {"smiles": "N#CC1=C(N)C2=CCCC[C@H]2[C@H](c2cccc(F)c2)C1(C#N)C#N", "Potency": "inconclusive: 25.1 µM [inhibitor, single point]"}, {"smiles": "CCCCC(=O)Nc1cccc(NC(=O)c2ccc3c(c2)OCO3)c1", "Potency": "inconclusive: 4.47 µM [inhibitor, full curve, poor fit]"}, {"smiles": "Cc1ccc(C(=O)O/N=C/c2ccc(N(C)C)cc2)cc1", "Potency": "inconclusive: 1.26 µM [inhibitor, full curve]"}, {"smiles": "CCCCN(CCCC)CCNC(=O)c1ccc2nc(-c3ccccc3NC(C)=O)c(=O)[nH]c2c1", "Potency": "inconclusive: 44.7 µM [inhibitor, single point]"}, {"smiles": "FC(F)(F)c1nnc2ccc(N3CCN(c4ccccc4)CC3)nn12", "Potency": "inconclusive: 15.8 µM [inhibitor, partial curve]"}, {"smiles": "Cc1nnc(NC(=O)c2ccccc2-c2ccccc2C(=O)O)s1", "Potency": "inactive"}, {"smiles": "CCCCCCN(C(=O)CCCCCN1C(=O)NC(c2ccc(-c3ccccc3)cc2)C(C(=O)OCc2ccccc2)=C1C)C(C(=O)NCCCC)c1ccc(OCC(=O)O)c(C(=O)O)c1", "note": "(centres undefined)", "Potency": "inconclusive: 39.8 µM [inhibitor, single point]"}, {"smiles": "COc1ccc(COC(=O)N/N=C2/C[C@@H](O)[C@@H](O)[C@@H]3[C@@H]4C(=O)N(c5cccc(Oc6ccccc6)c5)C(=O)[C@H]4CC[C@H]23)cc1", "activity, negative = inhibition": "inactive: -4.54% [at 11.5 µM]"}, {"smiles": "CC1S/C(=C(\\C#N)C(=O)NCc2ccco2)N(Cc2ccco2)C1=O", "note": "(centres undefined)", "Potency": "inconclusive: 28.2 µM [inhibitor, single point]"}, {"smiles": "Nc1ccc(C(=O)OCC(=O)NC2CCCc3ccccc32)cc1[N+](=O)[O-]", "note": "(centres undefined)", "Potency": "inconclusive: 15.8 µM [inhibitor, partial curve]"}, {"smiles": "C/C=C/Cn1c(SCc2ccc(C)cc2)nc2c1c(=O)[nH]c(=O)n2C", "Potency": "inactive"}, {"smiles": "CCOC(=O)N1CCc2c(sc(NCc3sccc3C)c2C(=O)Nc2ccc(OC)cc2OC)C1", "Potency": "inconclusive: 14.1 µM [inhibitor, partial curve]"}, {"smiles": "Cn1ncc2c(N3CCN(c4cccc(Cl)c4)CC3)ncnc21", "Potency": "inconclusive: 3.16 µM [inhibitor, full curve]"}, {"smiles": "COC(=O)c1ccc(COc2ccc3c4c(c(=O)oc3c2)CCC4)o1", "Potency": "inconclusive: 2.51 µM [inhibitor, full curve]"}, {"smiles": "CCOc1ccc(NC(=O)N(C2CCCC2)C2CCN(C(C)=O)CC2)cc1", "Potency": "inconclusive: 31.6 µM [inhibitor, single point]"}, {"smiles": "COc1ccc(-n2nnnc2-c2ccccc2)cc1", "Potency": "inactive"}, {"smiles": "O=C(O)/C=C/C(=O)Nc1ccc(N2CCOCC2)nc1N1CCOCC1", "Potency": "inconclusive: 11.2 µM [inhibitor, partial curve]"}, {"smiles": "Cc1ccc(C)c(N2CCN(C(=O)Cc3c(C(=O)O)[nH]c4ccc(Cl)cc34)CC2)c1", "Potency": "inconclusive: 20 µM [inhibitor, partial curve]"}, {"smiles": "Cc1c(C(=O)O)cccc1-n1c(C)cc(/C=N/Nc2ccc([N+](=O)[O-])cn2)c1C", "Potency": "active: 12.6 µM"}, {"smiles": "COc1ccc(NC(=O)c2cc3c(Cl)nc4ccccc4c3s2)c(OC)c1", "Potency": "inactive"}, {"smiles": "Cc1nnc(SCC(=O)c2cc(C)n(-c3ccc4c(c3)OCO4)c2C)s1", "Potency": "inconclusive: 31.6 µM [inhibitor, single point]"}, {"smiles": "CCCCc1ccc(/C=C2\\C(=O)c3ccccc3C(O)=C2C(=O)OCC)cc1", "Potency": "active: 17.8 µM"}, {"smiles": "C=CCN=C1S/C(=C/c2cccc([N+](=O)[O-])c2)C(=O)N1CC=C", "Potency": "inconclusive: 22.4 µM [inhibitor, single point]"}, {"smiles": "COc1ccccc1N1CCN(C(=O)CN(c2ccccc2OC)S(=O)(=O)c2ccccc2)CC1", "Potency": "inconclusive: 44.7 µM [inhibitor, single point]"}, {"smiles": "CCOc1c2ccoc2nc2c(OC)c(OC)ccc12", "Potency": "inconclusive: 0.794 µM [inhibitor, single point]"}, {"smiles": "CCn1cc(C(=O)N2CCN(c3ccc([N+](=O)[O-])cc3)CC2)c(=O)c2ccc(C)nc21", "Potency": "inconclusive: 28.2 µM [inhibitor, single point]"}, {"smiles": "COc1ccc2c(c1)O[C@@H]1c3ccc(OC)cc3OCC21", "note": "(some centres undefined)", "Potency": "inactive"}, {"smiles": "CC(C)N(C(C)C)S(=O)(=O)c1ccc(NN)nc1", "Potency": "inconclusive: 0.398 µM [inhibitor, partial curve, poor fit]"}, {"smiles": "O=C(Nc1ccc(F)cc1)N1CCC(c2nc3c(nnn3Cc3ccccc3Cl)c(=O)[nH]2)CC1", "Potency": "inactive"}, {"smiles": "COc1cccc(CNC(=O)C(=O)NCC(c2ccco2)S(=O)(=O)c2cccs2)c1", "note": "(centres undefined)", "Potency": "inactive"}, {"smiles": "CCOc1ccccc1CNC(=O)C1CCN(C(=O)N2CC(CC)Oc3ccc(C)cc32)CC1", "note": "(centres undefined)", "Potency": "inconclusive: 15.8 µM [inhibitor, partial curve]"}, {"smiles": "Fc1ccccc1N1CCN(C(c2cccs2)c2nnnn2CCc2ccccc2)CC1", "note": "(centres undefined)", "Potency": "inconclusive: 28.2 µM [inhibitor, single point]"}, {"smiles": "CCn1c2ccccc2c2cc(NC(=O)CSc3nnc(-c4cccc(F)c4)o3)ccc21", "Potency": "inconclusive: 6.31 µM [inhibitor, partial curve]"}, {"smiles": "COC(=O)c1c(NC(=O)CN2CCN(c3ccccc3Cl)CC2)sc(C)c1C", "Potency": "inconclusive: 15.8 µM [inhibitor, partial curve]"}, {"smiles": "O=[N+]([O-])c1ccc(Sc2n[nH]c(-c3ccc(Cl)cc3Cl)n2)nc1", "Potency": "inactive"}]}]}
